Results published in PubChem BioAssay AID902 (National Center for Advancing Translational Sciences (NCATS), 2007).
The campaign covered roughly 130,000 compounds. About 1,900 (1.5%) were called active. Inconclusive means that the source gave no clear call. Such entries were picked first, then a sample of the others. Calls follow the shape of the dose curve; as a rule, active = well fitted cell-killing curve with a large enough effect; inconclusive = small, poorly fitted or top-dose-only effect; inactive = no such curve, though single readings can be large or run the other way. A potency beside an inconclusive call is a rough fit, not a confirmed value.

Assay: qHTS Screen for Compounds that Selectively Target Cancer Cells with p53 Mutations: Cytotoxicity of p53ts Cells at the Nonpermissive Temperature; also: nearly all actives have a fitted effect of over 55% in size
Conditions: H1299-p53A138V viability at 39C, ATP luminescence, 24 h; activity change, negative = cell killing: at 46.1 µM (top of the series)
% is scaled to controls: 0 for no effect and ±100 for the full control effect; potency is read from the fitted curve at half-maximal effect; tags tell the direction and shape of the fitted curve.

| Structure (SMILES) | Potency | activity change, negative = cell killing |
| --- | --- | --- |
| Cc1cccc(N(CC(O)Cn2c3ccccc3c3ccccc32)S(=O)(=O)c2ccc(F)cc2)c1 (centres undefined) | inconclusive: 31.6 µM [cytotoxic, single point] |  |
| CN(CCCNC(=O)c1cc2c(Cl)nc3ccccc3c2s1)Cc1ccccc1 | inconclusive: 20 µM [cytotoxic, single point] |  |
| COc1ccc(CCn2c(=O)c3cccnc3n(CC(=O)Nc3ccc(C)c(F)c3)c2=O)cc1OC | inconclusive: 25.1 µM [cytotoxic, single point] |  |
| Oc1[nH]c2ccccc2c1/C=N/c1nccs1 | inconclusive: 31.6 µM [cytotoxic, single point] |  |
| CCOc1ccc(NC(=O)c2c(NCc3cccnc3)sc3c2CCCC3)cc1 | inconclusive: 0.158 µM [cytotoxic, full curve, poor fit] |  |
| O=S(=O)(Nc1ccc(Br)cc1F)c1ccc2nc(-c3ccccc3)[nH]c2c1 | inconclusive: 31.6 µM [cytotoxic, single point] |  |
| O=S(=O)(NCC(c1cccs1)S(=O)(=O)c1ccccc1)c1ccc(F)cc1 (centres undefined) |  | inactive: 9.11% |
| CCOc1ccccc1CNC(=O)c1cc(-c2ccc(Cl)s2)nc2ccccc12 |  | inactive: -17.8% |
| CCOc1ccccc1CNC(=O)C1CCN(c2nnc(C)c3c(C)n(-c4ccc(C)cc4)nc23)CC1 | inconclusive: 20 µM [cytotoxic, single point] |  |
| O=C(CC1(O)C(=O)N(CCc2ccccc2)c2ccc(Br)cc21)c1ccccc1 (centres undefined) | inconclusive: 31.6 µM [cytotoxic, single point] |  |
| CCC1CCCCN1C(=O)CSc1n[nH]c(-c2ccccc2)n1 (centres undefined) | inconclusive: 12.6 µM [cytotoxic, partial curve] |  |
| CCc1ccc2oc(C(=O)Nc3nc(-c4ccc(F)cc4)ns3)c(C)c2c1 |  | inactive: -14.6% |
| Cc1ccc(NC(=O)c2cc(C)on2)cc1 | inconclusive: 20 µM [cytotoxic, partial curve] |  |
| Cc1ccccc1CN1CCC(CNC(=O)c2cc3ccc4cccnc4c3[nH]2)CC1 | inconclusive: 1.41 µM [cytotoxic, full curve, poor fit] |  |
| O=C1CC(c2nnc(Cc3ccc(F)cc3)o2)CN1c1ccccc1 (centres undefined) |  | inactive: 9.26% |
| Cc1cccc(N2CCN(S(=O)(=O)c3nnc(NC(=O)c4ccc(Cl)cc4)s3)CC2)c1 |  | inactive: -5.65% |
| CNCC(O)Cn1c(C(F)(F)F)nc2ccccc21 (centres undefined) | inconclusive: 5.62 µM [cytotoxic, single point] |  |
| Cc1nc2nc(CNC(=O)c3cccc(F)c3)nn2c(C)c1CCC(=O)Nc1ccc(F)cc1 |  | inactive: 6.99% |
| COc1ccc(-c2nc(=S)[nH][nH]2)cc1 |  | inactive: -6.13% |
